# Over roughly 110,000 compounds, “z-score” has its median near -0.1; the highest 2% begin near 2. Some of the results follow. Calls of active or inactive are those of the source.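 Rule for the calls: active = z-score in the third read window above 3 or below -3; inactive = the rest.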
# Target: Metabotropic glutamate receptor 8 (Rattus norvegicus) (UniProt P70579)
# Experiment: mGluR8 Gi/Go-coupled signaling modulation – cell-based, rat, thallium flux, HTS, primary screen (AID 488969)
# Details: HEK293 rat mGluR8, GIRK (G protein-gated inwardly rectifying potassium channel) thallium flux, FluoZin2; at 10 µM; stronger effect = higher value; submaximal glutamate (EC20) added with thallium
# UniProt P70579, sequence (P70579 whole entry, looked up): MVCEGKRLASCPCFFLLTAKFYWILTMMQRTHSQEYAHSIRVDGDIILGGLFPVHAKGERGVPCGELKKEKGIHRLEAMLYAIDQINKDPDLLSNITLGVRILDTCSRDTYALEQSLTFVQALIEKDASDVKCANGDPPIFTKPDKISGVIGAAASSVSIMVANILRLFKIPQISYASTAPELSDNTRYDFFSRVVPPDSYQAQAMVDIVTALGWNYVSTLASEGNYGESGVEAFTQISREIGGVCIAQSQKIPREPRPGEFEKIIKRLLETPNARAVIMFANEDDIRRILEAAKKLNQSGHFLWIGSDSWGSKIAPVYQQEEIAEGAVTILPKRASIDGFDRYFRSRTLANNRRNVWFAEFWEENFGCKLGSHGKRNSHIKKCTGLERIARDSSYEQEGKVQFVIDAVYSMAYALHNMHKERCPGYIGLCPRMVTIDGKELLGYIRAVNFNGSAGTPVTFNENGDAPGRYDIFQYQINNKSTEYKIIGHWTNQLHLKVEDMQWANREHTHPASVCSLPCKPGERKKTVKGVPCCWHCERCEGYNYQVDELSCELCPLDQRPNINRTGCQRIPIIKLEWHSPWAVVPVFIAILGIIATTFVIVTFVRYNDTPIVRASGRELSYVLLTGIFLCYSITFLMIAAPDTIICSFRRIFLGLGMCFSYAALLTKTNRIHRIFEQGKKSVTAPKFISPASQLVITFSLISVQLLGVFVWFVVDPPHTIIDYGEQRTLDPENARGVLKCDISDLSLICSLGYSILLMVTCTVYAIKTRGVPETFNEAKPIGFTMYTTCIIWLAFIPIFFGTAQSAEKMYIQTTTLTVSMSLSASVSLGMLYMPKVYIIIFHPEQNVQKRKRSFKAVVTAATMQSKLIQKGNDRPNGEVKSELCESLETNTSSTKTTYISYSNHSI
row,Compound,z-score
1,COc1ccccc1CNC(=O)CN1C(=O)C(C)N(c2ccc(C)cc2)C1=O (stereo not given),-0.66
2,CN(c1ccc(C(=O)Nc2ccc3c(c2)OCCO3)cc1)S(C)(=O)=O,-0.209
3,Cn1c(C(=O)NCc2cccnc2)cc2sccc21,0.077
4,N#CC(c1ccc(Cl)nn1)c1ccc(Cl)cc1Cl (stereo not given),-0.287
5,CC(C)NS(=O)(=O)c1ccc(CCC(=O)O)cc1,-0.107
6,Cc1cc(C)cc(-n2c(SCC(=O)NCc3ccc4c(c3)OCO4)nc3ccccc3c2=O)c1,-0.107
7,O=C(O)CCCC(=O)Nc1ccc(Sc2ccc([N+](=O)[O-])cc2)cc1,-0.313
8,O=C(/C=C/c1ccccc1Cl)Nn1cnc2ccccc2c1=O,-0.163
9,O=C(CC(=O)c1ccccc1O)c1ccc(F)cc1,active: 7.61
10,CCOc1cc(CNn2cn[nH]c2=S)cc(Cl)c1OCc1ccccc1F,0.108
11,CCOC(=O)Nc1ccc2c(c1)N(C(=O)CN1CCN(C)CC1)c1ccccc1S2,0.133
12,Cc1c(C2Nc3ccccc3C(=O)N2O)cnn1C (stereo not given),0.189
13,CCc1c(C(=O)c2ccc(Cl)cc2)oc2c(C)c3oc(=O)cc(C)c3cc12,-1.59
14,COc1ccc(C(=O)Nc2ccc(N3CCOCC3)cc2)cc1OC,-0.0901
15,O=C(NNC(=O)c1cccnc1)Nc1cccc2ccccc12,-0.144
16,CCOc1cc(C(=O)OCC(=O)Nc2c(C)cccc2C)ccc1OCC(=O)N1CCOCC1,-0.274
17,CCCC(=O)Nc1ccc(N2CCOCC2)cc1,0.225
18,Cc1ccc(-n2nc(C)c3cc(C(=O)O)sc32)cc1,-0.377
19,COc1ccc(N2CCN(C(=S)NCCc3ccccc3)CC2)cc1,-0.245
20,Cc1cc(F)ccc1S(=O)(=O)Nc1ncnc2scc(-c3ccc(F)cc3)c12,-1
21,C=CCNC(=S)NNC(=O)c1csc(C)c1C,-0.26
22,O=C(/C=C/c1ccccc1)N1CCN(c2ccccn2)CC1,-0.288
23,Cc1cc(C(=O)NCc2ccccc2)c(=O)[nH]c1C,0.0221
24,Cc1ccc2cccc(Oc3ncnc4scc(-c5ccc(Cl)cc5)c34)c2n1,-0.0666

row,Compound,z-score
1,CC(=O)c1c(C)oc2ccc(O)c(CN3CCOCC3)c12,0.000118
2,COCCCNC(=S)NC1CC2CCCC(C1)N2Cc1ccco1 (stereo not given),-0.0727
3,CCN(CC)C(=O)C(C)N(C#N)c1nc(NC(C)C)nc(NC(C)C)n1 (stereo not given),0.373
4,COc1cc(COCC(O)CN2CCOCC2)cc(OC)c1OC (stereo not given),0.414
5,Cn1c(=O)c(=O)n(C)c2cc(S(=O)(=O)Nc3ccc4c(c3)OCCO4)ccc21,-1.23
6,CCOC(=O)N1CCN(C(=O)C2CC(c3ccc(F)cc3)=NO2)CC1 (stereo not given),1.96
7,COc1nc(OC)nc(N2CCCCCC2)n1,0.193
8,COc1ccc(CNC(=O)C(c2ccco2)N(C(=O)c2csnn2)c2cccc(C)c2C)cc1 (stereo not given),0.695
9,COc1cc(NC(=O)CN(c2cc(C)cc(C)c2)S(=O)(=O)c2c(C)noc2C)cc(OC)c1,-0.0897
10,CCN(CC)c1c2c(c(C#N)c3nc4ccccc4n13)CCC2,-2.55
11,O=C(Nc1c(F)cc(F)cc1Br)c1cccnc1,0.116
12,CNC(=O)N(c1ccccc1)c1ccccc1,0.234
13,COc1cccc(-n2ccnc2SCC(=O)N2CCc3ccccc32)c1,-0.163
14,Cc1ccc(C(=O)COC(=O)CCC(=O)Nc2cccc(Cl)c2)cc1[N+](=O)[O-],0.094
15,Nc1ccc(N(c2ccccc2)c2ccc(N)cc2)cc1,0.0499
16,COc1cccc(OC)c1C(=O)Nc1ccc(CN2CCOCC2)cc1,0.678
17,O=C(CSc1cn(Cc2ccccc2)c2ccccc12)N1CCOCC1,-0.89
18,CC(C)OC(=O)c1c(N)sc2c1CCCC2,2.03
19,Cc1ccc(-c2ccc(/C=N/N=C3/NC(=O)C(CC(=O)O)S3)o2)c([N+](=O)[O-])c1 (stereo not given),-0.36
20,CCOC(=O)c1cnc2ccc(C)cc2c1NCCO,-0.283
21,CCCCn1c(=NC(=O)c2ccco2)c(C(=O)OCC)cc2c(=O)n3ccccc3nc21,-1.49
22,COc1cc(CNCCc2c[nH]c3ccccc23)ccc1OCc1ccc(F)cc1,active: 3.41
23,CCSc1ncc(Cl)c(C(=O)Nc2ccc(S(=O)(=O)Nc3onc(C)c3C)cc2)n1,-1.78
24,CCOP(=O)(OCC)C(C)(C)NC(=O)c1cc([N+](=O)[O-])cc([N+](=O)[O-])c1,0.532

row,Compound,z-score
1,CCCS(=O)(=O)N1CCC(C(=O)N2CCN(Cc3ccccc3)CC2)CC1,0.118
2,CC(=O)c1c(C(C)=O)c(C)n(-c2cccc([N+](=O)[O-])c2)c1C,-0.308
3,O=C(NCCCc1ccccc1)C1CCN(c2nnc(-n3cccc3)s2)CC1,-0.0334
4,O=C(c1cc2ccccc2o1)N1CCN(S(=O)(=O)c2cccs2)CC1,-0.157
5,O=C(COc1cccc2ccccc12)N/N=C/c1ccc(Sc2nc3ccccc3s2)o1,0.351
6,CCS(=O)(=O)N1CCCC(C(=O)NCC2CCCO2)C1 (stereo not given),-0.303
7,Cc1cc(C)c2c(=O)[nH]n(C3CCOC(C)(C)C3)c2n1 (stereo not given),-0.311
8,COc1ccc(C(NC(C)=O)c2c(O)ccc3ccccc23)cc1OC (stereo not given),1.73
9,O=C1C=CC(=O)N1CCCCCCN1C(=O)C=CC1=O,0.367
10,O=C(N/C(=C/c1cccc([N+](=O)[O-])c1)C(=O)N1CCCCCC1)c1cccs1,-0.315
11,Cc1c(C(=O)c2no[n+]([O-])c2C(=O)c2cnn(C)c2C)cnn1C,0.0604
12,Clc1ccc(-c2nnc(-c3ccccc3)o2)c(Cl)c1,0.405
13,CCn1nc([N+](=O)[O-])c(C(C#N)c2nc3cc(C(F)(F)F)ccc3s2)c(Cl)c1=O (stereo not given),2.97
14,Cc1ccccc1NC(=S)N1CCCC1,0.248
15,CC(=O)c1c(C)[nH]c(C(=O)OCC(=O)Nc2cc(S(=O)(=O)N3CCCC3)ccc2Cl)c1C,0.262
16,COc1ccc(CCNS(=O)(=O)c2ccc(N3CCCC3=O)cc2)cc1,0.117
17,O=C(NCc1ccc(Cl)cc1Cl)c1ccc2nc[nH]c2c1,0.0902
18,Cc1cccc(-c2noc(CN(C(=O)C(c3ccccc3)c3ccccc3)C(C)C)n2)c1,-0.488
19,COC(=O)Cc1n[nH]c(=O)c2ccccc12,0.456
20,Cc1ccc(N(CCCCN2C(=O)c3ccccc3C2=O)C(=O)c2ccc(Cl)s2)cc1,-0.0355
21,O=C1C2CC=C(Cl)CC2C(=O)N1CC1OCCc2ccccc21 (stereo not given),-0.4
22,O=C(Nc1ccccc1)c1cnc2n(c1=O)CCS2,-0.146
